From the supplement of paper PMC11417369
± gives the standard deviation of the averaged measurements. This is one part of the list.

system: PfAP2-EXP AP2 domain (GST-tagged); experiment: gcPBM binding intensity (ln(normalized median fluorescence intensity)); higher = stronger DNA binding
Summary of the method: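 Binding intensity is defined as the maximum Masliner-normalised natural-log median intensity across replicate spots for either probe orientation. It was measured on an Agilent 4 × 180k array of primer-extended double-stranded 36-bp intergenic genomic probes and negative controls, to which GST-tagged P. falciparum DNA-binding domains made in E. coli were applied for 1 h in 1× PBS with 1% milk, 0.2 mg/ml BSA, 0.5% salmon testes DNA and 0.03% Triton X-100. Detection was by Alexa488 anti-GST antibody and scanning at 488 nm.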

Sequence	gcPBM binding intensity (ln)
ATTTATAATGAGTATACACACATATATAGATTTGCT [CACACA_site4517]	8.44 ± 0.43
TATATATATATATATTGTACTTTATTTTATATATTC [XGTACX_site5697]	10 ± 0.4
AAAAAAAAAAAAAACATACACACAAGAACAAAATAT [CACACA_site3003]	8.93 ± 0.52
CAACAACATTTTTCATGTACATATATTTTATAATAT [XGTACX_site519]	8.6 ± 0.31
TAAAAAATAAAATACACACACATATTTATATTTATA [CACACA_site6737]	8.14 ± 0.59
ATTTTCAAATTATCAGATGAATCTTTTTAAGATCTT [XGTACX_negctrl_site598]	8.02 ± 0.36
AAACTATACCAAAACACACATACAAAATATAAAAAA [CACACA_site2707]	8.82 ± 0.33
GGGAAAAAATGAGGTCGTACATTTTTCATCACAAAT [XGTACX_site8920]	8.64 ± 0.52
GTCTGCATATGGATACGTACACATATATATTAATGT [XGTACX_site2260]	8.78 ± 0.17
TTTTTTTTTTTTTTTTTACACACTGCATACAAGAAA [CACACA_site3026]	8.46 ± 0.42
CTCATATATAACACATGTACACAGATTTTGCAAATG [XGTACX_site6879]	9.21 ± 0.43
AATGAATGTACATACGCATGTACTTGACTAAATTAT [TGCATGCA_site436]	8.81 ± 0.36
TTTTTTATGAGGTGGTGTACTTTTTTTTTTTTCTTT [XGTACX_site8550]	8.48 ± 0.54
ATAAATAAAACAACAGTGCAATAAAATTAGTTGAGG	9.035 ± 0.021
TGGTAATACCCATACACACACACATACCCATATATA [CACACA_site5509]	8.61 ± 0.49
ATTAAAGAGAGACATCAACACACATACGTATGTATA [CACACA_site8393]	8.39 ± 0.46
TTCAAATAAATAGTAGTGCATATTTATTAATGTAAA	8.52 ± 0.13
CAAGAAACAGTGATACGTACACATATATATATATAT [XGTACX_site3229]	10.2 ± 0.32
TAATATATTATAAACACATGCACATTAATAATAACT [TGCATGCA_site708]	8.92 ± 0.18
ATATGAAACATGAAGGTGCATAATGTGTATATTTAT	8.92 ± 0.14
ACATAAATATATTTTTCACACATCATTAGTTATGAA [CACACA_site4724]	8.66 ± 0.51
TATATATATATATATGTGCACATTTTATTAAAATGT	10.2 ± 0.34
ATAGACATTTTACTTTGTACATATAAACATATATAT [XGTACX_site2733]	8.79 ± 0.56
TATTTTTTAAAAAAACGTACAAACATAATAAAAATA [XGTACX_site1857]	8.96 ± 0.44
AAGGTATGATTAATCACACACATAAATATAAATACA [CACACA_site5464]	8.46 ± 0.13
AAGCTTCATTAATATACACACATATATGTGTATATT [CACACA_site7693]	8.61 ± 0.41
